Reference: the RNAGym collection of RNA variant scans (doi:10.7554/elife.90254)
The source gives no read counts; variants with many changes may rest on few reads.

B1: LINE1-mini (parent)
chain: GGCAGAGCUCAACACAGCGUGGCAAAGUGGCUGUGGCUAGACUGCC

Variants of: B1
Test: self-cleavage, relative activity (ratio to wild type); higher = more cleavage; in vitro, sequencing; the parent is a self-cleaving ribozyme

Variant	self-cleavage
C10U G21C G29A U34G	0.05
A16G G27C U28A	0.14
G5A C23G G40A	0.11
A24C G35C C37G A41C	0.01
G2U C3A A11C U20A G40A	0.07
G2A A11C G17U G29A	0.02
G7U A14G C42U	0.08
C3G G36U G40C A41U U43G	0.1
C10A C15A G17A U20C U32C	0.01
G5A C10G C37U	0.03
C3G C13G G19C G27U G29U U38G G44U	0.01
U20G G29U G35C	0.04
A25C G30U U32G	0.03
G30C G40U A41U C45U	0.12
U9G C10A G30U G40C C42A C46U	0.03
C31U A41C C46U	0.01
C13G A24U G40U G44U	0.04
A11U C13U G17A U20G A24C G35A	0.02
A14U G17U G29A	0.08
C3U G21A C31G G40A A41C	0.02
C8G A11C G19A C23A G35C C42U	0.02
U9G U20G G21A	0.03
A11U G19A G30A	0.05
C10A A11U A12U U20A	0.01

Variant	self-cleavage
G2U C3G U9A A25U G27A A41U	0.22
G2A G17A U20A A26C	0.15
G1U G36U A39C C46A	0.05
C3A A12G C37U C45U	0.09
C15U G19U U28G	0.23
G7A A25C U43A	0.08
A4U U20A C31U	0.05
G1A A6C A26C	0.31
C31G G33C G40U G44C	0.03
A25G U32A C37A A39U	0.25
A4U C15U A26C C37G G40A	0.05
G2A A26G U32A	0.2
G17C U20G C23U C31U U38A	0.05
C8U C18A U20G	0.15
C13A C15A C31A G36C A41C	0.02
G1A G7U C31U	0.13
C15A G30C U34A	0.06
C3G C15G C18A U32C C42A C45G	0.16
G1U U34G U38C	0.03
A6C G17U U32A	0.04
U9C A12G A26G C42G	0.01
C3A A6G C10U G17U G29U	0.1
A11U G17A G21C U28C C45U	0.02
A14U C23A G33A G35A	0.04

Variant	self-cleavage
G5C A12U U32G C42U	0.02
C3U C10A G17C C23U C46A	0.01
C15U U28G C37A A39G	0.11
C3G A4C U9A	0.11
G7A G17U G19C C23G	0.13
A4C A6G U20A	0.08
G21A G30U A39U	0.96
G21C G33U G36A	0.09
G7U G19C C45U	0.04
G7U U32G U43A C46U	0.1
G2A A26C C31U	0.11
C13G A26G G36U A41G	0.07
G2C G5U G17C G22U C45G	0.01
C8U C23U G30A	0.72
A6G C23U G35A G36C G40U G44U	0.03
C13A G17A C18A	0.06
A6G G40U U43C	0.02
C23U G29U C37U G40A G44A	0.03
A12U C15G C23G	0.03
A26G G30U U32A	0.08
C3A G21C G29A	0.54
C10A A26C G35A	0.01
G19A G36C C46U	0.06
G22C U34G C37U	0.04

Variant	self-cleavage
G40A A41C C45A	0
C3G A6G C8U U9C	0.01
G2C C3A G33U	0.09
G1U A14G G21U U28G C45U	0.03
G17C C23G U28C	0.15
C10A G21U C45A	0.02
C8G G22A C31A C45U	0
A4C U9C G44C	0.02
G1A C31U G33C G36A G44U	0.02
G5A C8A C23U A39U G44A	0.22
G7U G17A C31U U43C	0.08
C3G A11C C18G	0.05
G1U G5A C10U C18U A41G	0.03
G5U C8A C10G C15G	0.03
G29U C31U C37U	0.02
G5C A6C C8G A16C G27C A41G	0.01
G19U C37G U38C	0.02
A11C A24C A25U U34C	0.02
A41G G44C C46G	0.01
G1A C23U U38G	0.01
G1C C18A C23A	0.07
A4G U32G A39U A41U	0.04
C13U G30U C45G	0.17
G5U C13U G40A	0.03

Variant	self-cleavage
C15G U34G C46A	0.02
C15A C18U G33U	0.14
A14G U32A A41C C45G	0
C8U G19C A25G G30U U32A G36C C45A	0.06
C3A A6C C8A	0.31
C15G A39G C46A	0.02
A4G A26U G30A A41C	0.02
C8G A24G A39U C46G	0
C15A C23A A39U	0.04
G7C G19A G22A A25G G27U	0.02
C23A A24U G33C A39U	0.02
A16C G36U G44A	0.02
A6C C13A C23G G29U C31U	0.25
C10A C13U G30A	0.04
C15U G22C C46A	0.29
A14U G21C C31G U38G	0.01
G21C C31G C45A	0.07
C10A U28C C42U	0.03
A11C U20G A25U U43A	0.02
G5A A16G G35C	0.03
G5C C8A C10A C15A G27C G30A G33A	0.03
G5U C15U G19A G30C U34A	0.05
C23U G29C G35U C45G	0.04
G21A A26U G27A C37G	0.01

Variant	self-cleavage
C8G G33C C37A G40C	0.04
G2U G19C G30A G36U	0.06
G5U C10A G36C	0
A14C G36A U38C C46G	0.03
C18A U20A U32A	0.12
C8A A24C A26U U38A	0.21
G19U G36C C42U	0.05
G5C C10A G17U G19U C42U C45A	0.02
A4C C13G G21U G40U	0.28
C13G C23U A39C	0.03
A12G A16U A25G G33U C45A C46G	0
A14C G19C A39C	0
C10A U38A A41C C45U	0.04
U20G U32A C42G	0.04
C15U G17C U28C U38A	0.24
C18A G29C U34G	0.05
G2A A26G C42G U43G	0.06
G1A G5C G7U G30A G33A C37A	0.2
U9G C15A G44A C45U	0.03
A12U A14G G17A C18A U20G G30U A39G G40U C45U	0.01
G7C G17A U38C	0.11
C10A G22U C31G C42G	0.02
G17C G22U A39C	0.23
C15G C42A C46A	0.09

Variant	self-cleavage
C15G G19A U20G G30C U43A	0.03
G2A C23U U38C C45U	1.49
G30A G36C C46A	0.05
A6C U20G C31G	0.04
G2A U34C C45G	0.09
A4U C10A G27U	0.03
C8U C23U C45U	0.27
A6U A11G C46U	0.03
G21U C31A C46G	0.04
G2C A4C U43A	0.06
A12U C18A G29U G40U	0.08
C18A A25U U32A	0.04
C8U G19A G21A C45A	0.34
C3U U9C G40U	0.02
G2U U9C A11C G35A C42A C45A	0
G21C G22U G33U	0.19
C13A G21A G35A A41G	0.04
G1U G22U G27U	0.3
C10U A16C U28A G30A C46G	0
G2U G5A C8G C13U G21U C42A C45G	0.03
G5A C31G U34A C37G U43A	0
C3A A11G G22C A41U	0.04
A12U G30A C31G G33C U34C	0.03
